Assay results published in PubChem BioAssay AID1030 (National Center for Advancing Translational Sciences (NCATS), 2008).
The campaign covered roughly 220,000 compounds. About 16,000 (7.3%) were called active. Inconclusive results, whose numbers are uncertain, are shown with a selection of clear calls. The call rests on the fitted dose curve; in most records, active means well fitted inhibition curve with a large enough effect (not every such curve was filed as active); inconclusive means small, poorly fitted or top-dose-only effect, or another doubt; inactive means no such curve, though single readings can be large or run the other way. Potencies of inconclusive entries are left out as doubtful fits.

These compounds were tested against Aldehyde dehydrogenase 1A1 (Homo sapiens) (UniProt P00352) (assay: qHTS Assay for Inhibitors of Aldehyde Dehydrogenase 1 (ALDH1A1)). Settings: Purified ALDH1A1, NADH fluorescence, propionaldehyde substrate; series mostly up to 75.3 µM.
Sequence of UniProt P00352 (P00352 whole entry, looked up): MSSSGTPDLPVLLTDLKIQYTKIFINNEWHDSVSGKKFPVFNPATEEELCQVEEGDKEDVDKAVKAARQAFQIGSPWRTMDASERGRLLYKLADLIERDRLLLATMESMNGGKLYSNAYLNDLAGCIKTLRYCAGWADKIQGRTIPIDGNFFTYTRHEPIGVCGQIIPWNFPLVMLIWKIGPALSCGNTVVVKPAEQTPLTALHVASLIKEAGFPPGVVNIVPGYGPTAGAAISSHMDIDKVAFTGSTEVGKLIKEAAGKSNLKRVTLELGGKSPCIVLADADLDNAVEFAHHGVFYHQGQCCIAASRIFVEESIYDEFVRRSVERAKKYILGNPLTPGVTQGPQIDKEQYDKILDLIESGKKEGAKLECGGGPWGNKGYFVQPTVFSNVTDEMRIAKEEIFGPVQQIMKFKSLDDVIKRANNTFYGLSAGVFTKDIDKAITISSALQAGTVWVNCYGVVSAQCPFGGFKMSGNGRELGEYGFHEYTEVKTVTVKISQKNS
Potency means the concentration at half of the fitted maximal effect; tags describe the fitted curve by direction and shape.

Row | SMILES | Potency
1 | COc1cc(/C=N/Nc2nc(Nc3ccccc3)nc(-n3nc(C)cc3C)n2)cc(OC)c1OC | inactive
2 | Cc1ccc(CN2C(=O)N/C(=C/c3cc(C)n(-c4ccccn4)c3C)C2=O)cc1 | inconclusive [inhibitor, partial curve]
3 | N#CC1=C(c2ccccc2)/C(=C/c2ccccc2)OC1=O | inconclusive [inhibitor, single point]
4 | CC(=O)N1CCc2cc(S(=O)(=O)NCCC(=O)NC3CCCc4ccccc43)ccc21 (stereo unspecified) | inconclusive [inhibitor, single point]
5 | Cc1cc2ccccc2n1CCNC(=O)c1ccc(Br)o1 | active: 5.62 µM
6 | CN(C)S(=O)(=O)c1cc(NC(=O)CN2CCN(c3ccc(O)cc3)CC2)ccc1Cl | active: 12.6 µM
7 | COc1cccc(-c2nnn(CC(=O)Nc3cc(OC)c(NC(=O)c4ccco4)cc3OC)n2)c1 | inconclusive [inhibitor, single point]
8 | O=c1nc(-c2ccccc2)c2ccccc2[nH]1 | inconclusive [inhibitor, partial curve]
9 | COc1ccc(C(=O)NNC(=O)CSc2nnc(-c3ccc(O)cc3)n2C)cc1 | inconclusive [inhibitor, single point]
10 | O=C(COC(=O)CNS(=O)(=O)c1ccccc1)NC12CC3CC(CC(C3)C1)C2 | inactive
11 | O=S(=O)(c1ccccc1)N1CCC2(CCN(c3ccc(-c4ccccc4)cc3)CC2)CC1 | inconclusive [inhibitor, partial curve]
12 | COC(=O)c1ccc(NC(=O)c2cccc(C)c2[N+](=O)[O-])cc1 | inconclusive [inhibitor, single point]
13 | O=C(COc1ccccc1)NNC(=O)c1cc2ccccc2oc1=O | inconclusive [inhibitor, single point]
14 | COC(=O)[C@@H](NC(=O)N1CCC(C)CC1)C(C)C | inactive
15 | COc1ccc(S(=O)(=O)N(C)C)cc1NC(=O)CSc1nncs1 | inactive
16 | O=[N+]([O-])c1cccc(-c2csc(N/N=C/c3cccc(O)c3)n2)c1 | inactive
17 | COc1ccc(C2NC(=O)C(C#N)=C(S)N2c2cccc(C)c2)cc1OC (stereo unspecified) | inconclusive [inhibitor, single point]
18 | CCN1CCCC1CN(Cc1cc2ccc(C)cc2[nH]c1=O)C(=S)Nc1ccc(OC)cc1 (stereo unspecified) | inactive
19 | O=c1cc(-c2ccccc2Cl)oc2c(NS(=O)(=O)c3cc(Cl)cc(Cl)c3O)ccc(O)c12 | active: 10 µM
20 | O=C(C1=C[C@H](c2ccc(Br)cc2)C[C@H](OCc2ccc(CO)cc2)O1)N1CCN(Cc2ccc3c(c2)OCO3)CC1 | inconclusive [inhibitor, single point]
21 | Cc1cc(C)c(S(C)(=O)=O)c(Oc2ccccc2C)n1 | inactive
22 | Cc1cc(C)c(S(=O)(=O)N(C)CC(=O)N2CCCCC2)c(C)c1 | inactive
23 | CC1CCc2nn(CC(=O)NCc3ccc4c(c3)OCO4)cc2C1 (stereo unspecified) | inconclusive [inhibitor, single point]

Row | SMILES | Potency
24 | CCNc1ncc2nc(-c3cc(F)cc(F)c3)c(=O)n(-c3ccc(OC)cc3)c2n1 | inconclusive [inhibitor, single point]
25 | CN1c2ccccc2C(=O)NC1c1ccc(Cl)cc1 (stereo unspecified) | inconclusive [inhibitor, single point]
26 | C[n+]1ccccc1/C=N/O | inactive
27 | O=S(=O)(CCOc1ccccc1)N1CCOCC1 | active: 20 µM
28 | O=C1N/C(=C/c2ccc(Br)cc2)C(O)=C1C=NCc1ccccc1 | inactive
29 | CCOc1cc(CN2CCOCC2)cc(C(C)=O)c1 | inconclusive [inhibitor, single point]
30 | CCSc1nnc(NC(=O)CC(C)C)s1 | inconclusive [inhibitor, single point]
31 | COc1ccc(C(=O)Nc2ccc(S(=O)(=O)Nc3nccnc3OC)cc2)cc1OC | inactive
32 | COCCn1c(SCC(=O)N(C)C2CCS(=O)(=O)C2)nc2ccccc2c1=O (stereo unspecified) | inactive
33 | Cc1ccccc1-n1ncc2c([N+](=O)[O-])cc([N+](=O)[O-])cc21 | inconclusive [inhibitor, single point]
34 | COc1ccc(-c2cc3ccccc3oc2=O)cc1NC(=O)c1ccc(Br)o1 | inconclusive [inhibitor, partial curve]
35 | O=C(Nc1ccccn1)c1ccc(Cl)c([N+](=O)[O-])c1 | inactive
36 | CCn1ncc(C2=NOC(C(=O)Nc3ccccc3C(=O)OC)C2)c1C (stereo unspecified) | inconclusive [inhibitor, single point]
37 | O=C1CCC/C1=c1\s/c(=C\c2cccnc2)c(=O)n1-c1ccccc1 | active: 6.31 µM
38 | Cc1ccc(CNC(=O)Nc2cccs2)cc1 | inconclusive [inhibitor, single point]
39 | O=C(Nc1cccc(-c2nc3ccccc3c(=O)o2)c1)c1ccccc1 | inconclusive [inhibitor, single point]
40 | Cc1ccccc1C(=O)NC1CCN(Cc2nnnn2C2CCCC2)CC1 | inactive
41 | Cc1nc2ccccn2c1C(=O)NCC(C)C | inconclusive [inhibitor, single point]
42 | N#Cc1cccc(NC(=O)N2CC3(CCN(C(=O)c4ccco4)CC3)C2)c1 | active: 9.46 µM
43 | Cc1cccc(OCC(=O)N/N=C\c2cccn2C)c1C | inactive
44 | Cc1ccc(S(=O)(=O)N2CC(O)CC2C(=O)OCC(=O)c2ccccc2Cl)cc1C (stereo unspecified) | inconclusive [inhibitor, single point]
45 | CC[C@@H](C)[C@H]1O[C@]2(CC[C@@H]1C)C[C@@H]1C[C@H](C/C=C(/C)[C@H](O[C@@H]3C[C@H](OC)[C@H](O[C@@H]4C[C@H](OC)[C@@H](O)[C@H](C)O4)[C@H](C)O3)[C@@H](C)/C=C\C=C3CO[C@@H]4[C@H](O)C(C)=C[C@@H](C(=O)O1)[C@]34O)O2 (tested in a mixture with another compound) | inactive
46 | O=C(/C=C\Nc1ccc2c(c1)OCO2)c1cccs1 | inactive
